Source: the supplement of paper PMC3334620
Over roughly 33,000 sequences, “E-score (-0.5 to 0.5)” has its median near -0.054; the highest 2% begin near 0.39. This is one part of the list.

biological target: Ylr278c (UniProt Q05854); experiment: PBM E-score (8-mer binding enrichment) (E-score (-0.5 to 0.5)); higher = stronger / more preferred TF binding; most listed sequences are background and not binding sites; details: protein concentration: 200 nM; construct: GST-DNA-binding domain
In short: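 The E-score, a modified Wilcoxon-Mann-Whitney statistic, was computed by the Universal PBM Analysis Suite for every ungapped eight-base word pooled with its reverse complement. Scans behind it were normalised with masliner after bound GST-tagged yeast transcription factors were detected with fluorescent anti-GST. The proteins, at about 100-200 nM, had been applied to universal all-10-mer Agilent arrays made double-stranded by primer extension.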

| Sequence | PBM E-score |
| --- | --- |
| AATCCTAA | -0.0809 |
| ACGATTTA | 0.0466 |
| GGAATCCA | 0.139 |
| GGTAACGA | -0.057 |
| ACGTATGA | -0.145 |
| CTACGGCC | 0.123 |
| CGTTCCCC | 0.0912 |
| TGAATGCA | -0.132 |
| CGGGGCAC | 0.173 |
| CCGGAATC | 0.435 |
| AGTTCTCA | -0.0197 |
| TATACCAA | -0.101 |
| CGGCGAAG | 0.287 |
| GTATTGAA | 0.0438 |
| AAAAAATA | 0.0872 |
| TCTGGCAA | -0.0644 |
| GCTATCAA | -0.0652 |
| AGGTTATG | -0.0223 |
| CGCGCGTA | 0.203 |
| AACAAATC | 0.00828 |
| GTCTACCA | -0.199 |
| TGTCTCAA | -0.192 |
| AGCTCGAT | -0.0573 |
| GATCTGGA | -0.149 |
| GAAGCTAA | -0.0877 |

| Sequence | PBM E-score |
| --- | --- |
| GCTACTCC | 0.289 |
| CTGTAAAA | -0.0499 |
| ACAGTATA | -0.181 |
| GGCATCTA | -0.0448 |
| GGACGTCA | 0.0459 |
| ATTCTTAG | -0.27 |
| ACAAACTA | -0.0626 |
| ACACCCTG | -0.211 |
| AATTCTCG | -0.052 |
| CCCCCGTC | 0.0647 |
| GGCATGAA | 0.0634 |
| AGAACGCC | 0.128 |
| AATGTAAT | 0.113 |
| CCGCGTCC | 0.262 |
| GATTAACC | 0.00182 |
| AATGCAAA | -0.0473 |
| CGGTCCCA | 0.131 |
| CCGGCGAA | 0.404 |
| AATCCGGG | 0.417 |
| ACCCTGTC | -0.183 |
| AGTAAGTA | -0.0768 |
| CTCTCCCC | 0.00292 |
| CGTCACGA | -0.0839 |
| CGGCTACA | -0.0425 |
| GCTTTTCA | -0.0244 |

| Sequence | PBM E-score |
| --- | --- |
| AGGCACTC | -0.195 |
| AATAGATA | -0.126 |
| GTCACGTA | -0.319 |
| CTCGCGAG | 0.00091 |
| AATGTTGT | -0.0992 |
| GGAGCCAC | 0.0167 |
| ACTATTAT | -0.0407 |
| ACTGGTTC | -0.00699 |
| CCGCTGCG | 0.248 |
| ATGGTCTC | -0.0475 |
| ATCGAGCA | 0.0192 |
| CGCAGGCA | 0.0235 |
| ATACGTAA | -0.213 |
| CCAACCAG | -0.17 |
| CAAATGGG | -0.154 |
| CACGCCGA | 0.211 |
| CCGACACG | 0.246 |
| ATGGGTGA | -0.0653 |
| CTCTCTAC | -0.25 |
| GGGCACCA | -0.0453 |
| CGGTCGCA | -0.0242 |
| GTTCCACA | -0.0269 |
| CATCTAGA | -0.196 |
| TGTTAACA | -0.151 |
| ACTTTTAG | -0.0685 |

| Sequence | PBM E-score |
| --- | --- |
| GCTAGGAC | 0.021 |
| TCCCTCAA | -0.106 |
| ACGTGTCG | -0.149 |
| GATTCGGA | 0.363 |
| ATGGTCGC | -0.0551 |
| CATTGGCC | -0.204 |
| GGATATAA | 0.127 |
| CCTACCCA | -0.214 |
| ATACTCAG | 0.00853 |
| CCATGATA | -0.171 |
| AGAGACCT | -0.344 |
| ACATAAGC | -0.121 |
| GTGCACCA | -0.119 |
| GCCTCGGA | 0.352 |
| ACACACAT | -0.132 |
| GACTCTCA | -0.0842 |
| CAGTTGAG | -0.323 |
| GCTGCGAA | -0.0819 |
| CGACACAA | -0.181 |
| ACACAGCC | -0.0638 |
| GGTTCTTA | -0.0602 |
| AGATCACT | 0.0112 |
| GGCCGGGA | 0.325 |
| CAGATAGC | -0.0897 |
| TACGTCTA | -0.193 |

| Sequence | PBM E-score |
| --- | --- |
| AGGTCGTC | -0.0309 |
| AATCACAT | -0.0102 |
| AAGTACTT | -0.025 |
| CGGAAGGA | 0.301 |
| ACTGATAC | -0.128 |
| ATTGACAC | -0.0918 |
| AAATCTGC | -0.19 |
| GCTCGCCC | -0.0753 |
| ATGGTTCA | -0.0627 |
| CTAGCATA | -0.0627 |
| GATAACTA | -0.0391 |
| AACCCGTA | -0.0038 |
| CTGAGCGC | -0.145 |
| AAGGAGTC | -0.127 |
| CTTGATCC | -0.0306 |
| AAATGGTA | 0.0343 |
| AAAATGCC | 0.12 |
| CCTTAGAA | -0.197 |
| GTTCACAA | -0.0585 |
| GCTGAGAC | -0.12 |
| CGAGCTAA | 0.0875 |
| GCTAATGA | -0.196 |
| AGGCCTAT | -0.201 |
| GATGCAAA | -0.137 |
| GATGCCGA | 0.291 |

| Sequence | PBM E-score |
| --- | --- |
| GGCGTGAC | 0.00725 |
| GCTGGAGA | -0.271 |
| AACATCCT | -0.13 |
| AGACGGCT | 0.106 |
| GCCGGGTA | 0.178 |
| ACACTTGC | -0.148 |
| GTATAACA | -0.169 |
| CGTCCGGC | 0.407 |
| AAACCGGT | 0.204 |
| CCGGTTCA | 0.245 |
| GCGGTCCA | 0.0865 |
| GAGGTCAA | -0.0898 |
| GAAGAGGC | -0.0592 |
| ATCCAACC | -0.142 |
| AGCGTAGG | -0.118 |
| GACTGAGC | -0.207 |
| CATCATAC | -0.0582 |
| ATTATCGA | -0.173 |
| GGGGTCGA | 0.121 |
| ATATCGAG | -0.0239 |
| ACGAAGCA | -0.185 |
| AATGCTCT | -0.0976 |
| CCCTCCTA | -0.107 |
| GCAAATAC | -0.122 |
| GATGGAAC | -0.122 |

| Sequence | PBM E-score |
| --- | --- |
| GCCTAGTA | -0.0282 |
| AGAGTTAC | -0.362 |
| CATTATAA | 0.0314 |
| AATGTTTG | -0.00463 |
| AAGCATAG | -0.21 |
| ACAGTTGG | -0.18 |
| CAATATTG | -0.249 |
| AGATTCAA | 0.0154 |
| AATTGTCA | -0.248 |
| CGGGGCCC | 0.283 |
| TAGACAGA | -0.152 |
| ACCGATTG | 0.0828 |
| AACATGCT | -0.0663 |
| GTAACGAA | -0.139 |
| CCCATACG | -0.0748 |
| CGTATGCA | -0.00834 |
| CAGCCAGA | -0.0878 |
| GAAAGCTC | -0.214 |
| AAAAGAGT | -0.172 |
| AGAGAGGC | -0.233 |
| GAGGGTCA | -0.0944 |
| GTACATGA | -0.183 |
| CTGGCATA | -0.0157 |
| TCTAGTCA | -0.147 |
| CACCACGC | -0.189 |

| Sequence | PBM E-score |
| --- | --- |
| CAACGAGG | -0.126 |
| CATAAGCC | 0.0205 |
| CCGCGGTA | 0.355 |
| CAACGAGA | 0.0284 |
| GCTCTTAC | 0.0329 |
| TGCTCAAA | -0.118 |
| AAGCGTGG | -0.103 |
| AGAACGCT | -0.0442 |
| GACACGGA | 0.341 |
| CCAATACG | -0.0635 |
| AAGAAATT | 0.0981 |
| GACCTACA | -0.0188 |
| TTCCAGAA | -0.145 |
| CTTACCCA | -0.181 |
| CTGCAATA | -0.0169 |
| GAGATACA | 0.118 |
| AGGATCAG | -0.23 |
| ACTTCAGC | -0.181 |
| GGATTACC | 0.292 |
| TGTGACAA | -0.209 |
| GATAGGAA | -0.0409 |
| ACAGCAAC | 0.0377 |
| GTTTCCTA | -0.161 |
| ATCCTAAG | -0.147 |
| AAAACGGA | 0.211 |

| Sequence | PBM E-score |
| --- | --- |
| CGTATCAC | -0.112 |
| CATTGTAC | -0.109 |
| GATACAAA | 0.076 |
| AAAGACGT | 0.00612 |
| CATGGTAG | -0.215 |
| CAGCGGGG | 0.204 |
| CTTGCAAG | -0.0323 |
| ATAGCGTA | -0.0599 |
| ATATGTTA | -0.146 |
| TACCCTGA | -0.243 |
| CTGACGAC | -0.228 |
| ACAGCATC | -0.123 |
| AATGAGGA | -0.182 |
| ATTAATTG | 0.0195 |
| ACGTTCCC | -0.125 |
| CCAATAGC | -0.0656 |
| CTGGACAG | -0.149 |
| CACACCTC | 0.0903 |
| ATGGGAAG | -0.216 |
